Source: PubChem BioAssay AID588342 (National Center for Advancing Translational Sciences (NCATS), 2011)
In all, about 360,000 compounds went through this assay and about 25,000 (6.9%) were called active. Inconclusive means that the source gave no clear call. Such entries were picked first, then a sample of the others. Calls come from the whole dose curve; as a rule, active = well fitted inhibition curve with a large enough effect; inconclusive = small, poorly fitted or top-dose-only effect; inactive = flat fitted curve, though single readings scatter. Potencies beside an inconclusive call are fits to weak or partial responses and may not hold up.
Note: nearly all actives have a fitted effect of over 55% in size.
Potency is the fitted concentration of half-maximal effect; tags give direction and shape of the fitted curve.
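Throughout, for activity change, negative = inhibition: plate controls were vehicle for no effect and reference inhibitor for full effect.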

Each compound was assayed against Luciferin 4-monooxygenase (Photinus pyralis) (UniProt P08659) (assay: qHTS profiling assay for firefly luciferase inhibitor/activator using purifed enzyme and Km concentrations of substrates (counterscreen for miR-21 project)). Settings: purified FLuc, luminescence inhibition; series mostly up to 57.5 µM; activity change, negative = inhibition: at the top concentration.
UniProt P08659, sequence (P08659 whole entry, looked up): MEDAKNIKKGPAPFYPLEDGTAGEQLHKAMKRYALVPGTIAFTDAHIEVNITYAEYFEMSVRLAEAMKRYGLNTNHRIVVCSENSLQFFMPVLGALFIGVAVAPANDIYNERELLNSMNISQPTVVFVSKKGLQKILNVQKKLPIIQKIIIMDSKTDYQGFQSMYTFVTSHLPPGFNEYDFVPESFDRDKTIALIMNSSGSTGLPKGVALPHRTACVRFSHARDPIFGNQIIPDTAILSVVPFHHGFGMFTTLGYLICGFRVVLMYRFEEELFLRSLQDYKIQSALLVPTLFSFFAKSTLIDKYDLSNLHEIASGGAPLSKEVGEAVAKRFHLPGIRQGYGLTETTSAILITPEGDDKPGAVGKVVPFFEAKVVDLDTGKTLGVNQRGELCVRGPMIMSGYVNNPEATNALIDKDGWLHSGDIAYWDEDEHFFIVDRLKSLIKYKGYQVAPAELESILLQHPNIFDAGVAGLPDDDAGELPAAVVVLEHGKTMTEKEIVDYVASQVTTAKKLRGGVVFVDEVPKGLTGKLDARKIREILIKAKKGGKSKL
Procedure, shortened: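 Purified P. pyralis luciferase, 10 nM final, with Km-level 10 uM D-luciferin and 10 uM ATP in 50 mM Tris acetate pH 7.5, 10 mM Mg acetate, 0.01% Tween-20, 0.05% BSA; 6-point qHTS titration about 60 µM downward; luminescence read.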
With `O=S(=O)(Nc1ncnc2c1oc1ccccc12)c1ccc(Cl)s1` the Potency was inconclusive: 37.9 µM [inhibitor, single point].
In the case of `O=[N+]([O-])c1cccc(-c2ccc(C(=S)N3CCN(c4ccccc4)CC3)o2)c1`, the Potency is reported as inconclusive: 30.1 µM [inhibitor, partial curve, poor fit].
With `Cc1nn(Cc2ccccc2)c(Cl)c1C(=O)NCc1ccc(C)n1C` the “activity change, negative = inhibition” value was inactive: 3.85%.
`COC(=O)Cn1c(=NC(=O)c2ccc3c(c2)OCCO3)sc2ccccc21` was tested, and the Potency was active: 8.49 µM.
For `Cc1ccc(S(=O)(=O)N2CCOCC2)cc1C(=O)OCc1nnc(-c2ccccc2)o1`, the “activity change, negative = inhibition” value was inactive: -19.5%.
`O=C(c1ccc(-c2nc3ccccc3s2)o1)N1CCN(c2ccccc2O)CC1` was tested, and the Potency was active: 16.9 µM.
In the case of `COc1ccc(C(=O)Nc2ccccc2C(=O)NCCN2CCOCC2)cc1`, the Potency is reported as inconclusive: 23.9 µM [inhibitor, partial curve, poor fit].
With `Clc1ccc(-n2ncc3c(NCc4cccnc4)ncnc32)cc1Cl` the Potency was active: 1.07 µM.
For `COc1ccc(NC(=O)CSC2CCCCC2)cc1`, the Potency was active: 12 µM.
In the case of `O=C(NC(=S)Nc1ccc2c(c1)OCCO2)c1cccc(Br)c1`, the Potency is reported as active: 10.7 µM.
In the case of `O=[N+]([O-])c1cc(Br)c(O)c(C=Nc2ccc(N3CCOCC3)cc2)c1`, the Potency is reported as inconclusive: 21.3 µM [inhibitor, partial curve].
`COc1ccc(OC)c(/C=C/C(=O)Nc2ccc3c(c2)CCC3)c1` was tested, and the Potency was active: 10.7 µM.
For `CC1(C(=O)OCC(=O)Nc2ccccc2)CC1(Cl)Cl` (configuration not stated), the Potency was active: 16.9 µM.
For `CCNC(=O)c1ccc(-n2nc(C)cc2-c2ccccc2)cc1`, the “activity change, negative = inhibition” value was inactive: 0.67%.
With `Clc1ccc(/C=N/N2CCCCC2)cc1` the Potency was active: 10.7 µM.
For `Cn1c(N)c(C(=O)CSc2nnc(C3CC3)n2-c2ccccc2)c(=O)n(C)c1=O`, the “activity change, negative = inhibition” value was inactive: -2.36%.
`COc1cc2[nH]c(C(=O)NCC3CCCO3)cc2c(OC)c1OC` (configuration not stated) was tested, and the “activity change, negative = inhibition” value was inactive: 5.37%.
In the case of `COc1cccc(OC)c1CC1SC(=O)NC1=O` (configuration not stated), the “activity change, negative = inhibition” value is reported as inactive: -15.7%.
For `O=C(COc1ccccc1Cl)Nc1ccccc1C(=O)Nc1cccc(C(=O)O)c1`, the Potency was active: 7.57 µM.
With `C=CCSc1cc(C)nc2c(-c3ccccc3)c(C)nn12` the Potency was active: 12 µM.
`Cc1ccccc1NC(=O)c1c(NC(=O)c2ccccc2)sc2c1CCC2` was tested, and the Potency was inconclusive: 9.53 µM [inhibitor, partial curve].
`COc1ccc(-c2cn3nc(N4CCC(C(=O)Nc5ccccc5OC)CC4)sc3n2)cc1` was tested, and the Potency was inconclusive: 23.9 µM [inhibitor, partial curve, poor fit].
In the case of `O=C(COC(=O)c1ccccc1[N+](=O)[O-])NC(=O)c1ccccc1`, the Potency is reported as active: 16.9 µM.
In the case of `c1ccc(-c2cccs2)nc1`, the “activity change, negative = inhibition” value is reported as inactive: 5.49%.
In the case of `Cc1cccc(NC(=O)c2ccccc2O)c1C`, the Potency is reported as active: 13.5 µM.
In the case of `CNC(=O)CC12CC3CC(CC(C3)C1)C2`, the Potency is reported as inconclusive: 37.9 µM [inhibitor, single point].
`COc1ccccc1NC(=O)CN1CCN(CC(=O)Nc2ccc(F)cc2F)CC1` was tested, and the Potency was inconclusive: 26.9 µM [inhibitor, partial curve, poor fit].
In the case of `Cc1ccc(Cl)cc1-n1nnc(-c2nsc(NC(=O)c3ccccc3Cl)n2)c1C`, the Potency is reported as active: 12 µM.
With `CCc1ccc2c(COC(=O)C3CSC4(C)CCC(=O)N34)cc(=O)oc2c1` (configuration not stated) the Potency was inconclusive: 26.9 µM [inhibitor, partial curve, poor fit].
In the case of `CCn1cc2nc(SCc3cccc(C(F)(F)F)c3)n(Cc3ccc(Cl)cc3)c(=O)c2n1`, the “activity change, negative = inhibition” value is reported as inactive: 2.06%.
In the case of `CCn1ccnc1CN(C)Cc1nc(-c2ccc3c(c2)OCO3)no1`, the Potency is reported as inconclusive: 23.9 µM [inhibitor, partial curve].
In the case of `O=C(CSc1nnc(CNC(=O)c2ccco2)o1)Nc1ccc(F)cc1`, the “activity change, negative = inhibition” value is reported as inactive: -0.719%.
`O=C(c1ccc(-c2ccccc2Cl)o1)N1CCCC(C(F)(F)F)C1` (configuration not stated) was tested, and the Potency was active: 13.5 µM.
For `Cc1nc2ccc(NC(=O)c3cnc(Cl)c(Cl)c3)cc2s1`, the Potency was inconclusive: 23.9 µM [inhibitor, partial curve, poor fit].
In the case of `O=C(NCc1ccccc1)c1ccc(-c2ccccc2F)o1`, the Potency is reported as active: 13.5 µM.
`CCOc1ccc(OCC(=O)OCC(=O)NNC(=O)c2ccc([N+](=O)[O-])cc2)cc1` was tested, and the “activity change, negative = inhibition” value was inactive: 2.09%.
In the case of `COc1ccc(OC)c(-c2nc3cc4ccccc4cc3nc2-c2ccccc2)c1`, the Potency is reported as inconclusive: 30.1 µM [inhibitor, partial curve, poor fit].
For `CCc1cccc(NC(=S)N2CCC(c3ccccc3)C2)c1` (configuration not stated), the Potency was active: 23.9 µM.
For `CCN(c1ccc(NC(=O)c2ccc(N3CCCC3=O)cc2)cc1)C(C)C`, the Potency was inconclusive: 13.5 µM [inhibitor, partial curve].
For `CC(=O)Nc1ccc(C(=O)CN2C(=O)CSC2=O)cc1`, the “activity change, negative = inhibition” value was inactive: 4.88%.
For `Cc1c(C(=O)OCC(=O)Nc2cccc(S(N)(=O)=O)c2)oc2c1ccc1ccccc12`, the Potency was inconclusive: 23.9 µM [inhibitor, single point].
In the case of `CCOC(=O)c1cc2c(=O)n3ccccc3nc2n(CC(C)C)c1=NC(=O)COc1ccc(Cl)cc1`, the “activity change, negative = inhibition” value is reported as inactive: 0.49%.
`COc1cc(C(=O)N/N=C/c2ccc3c(c2)c2ccccc2n3C)ccc1O` was tested, and the Potency was active: 10.7 µM.
For `CCOC(=O)c1cc(-c2ccccc2)nc2nc(N3CCCCC3)sc12`, the “activity change, negative = inhibition” value was inactive: -12.7%.
For `Nc1[nH]n2c(=O)cc(-c3ccccc3)nc2c1N=Nc1ccccc1`, the Potency was active: 16.9 µM.
In the case of `CCCC(=O)N1N=C(c2ccccc2)CC1c1cn(C)c2ccccc12` (configuration not stated), the Potency is reported as inconclusive: 37.9 µM [inhibitor, partial curve, poor fit].
`C/C(=N\NC(=O)c1cc(-c2cccc(OC(C)C)c2)nc2ccccc12)c1cccnc1` was tested, and the Potency was active: 0.601 µM.
With `CCn1c(C(=O)NCc2ccccc2OC)cc2sccc21` the “activity change, negative = inhibition” value was inactive: -16%.
For `CCOc1ccccc1CNC(=O)C1CCN(S(=O)(=O)c2c(C)noc2/C=C/c2ccccc2F)CC1`, the “activity change, negative = inhibition” value was inactive: 1.72%.
For `Cc1ccc(C(=O)NCCn2cc(SCC(=O)N3CCOCC3)c3ccccc32)cc1`, the Potency was inconclusive: 13.5 µM [inhibitor, partial curve, poor fit].
For `CCN(CC(=O)NCc1ccc(Cl)cc1)C(=O)/C=C/c1ccc(Cl)c([N+](=O)[O-])c1`, the Potency was active: 9.53 µM.
With `COc1cc(C2C3=C(CCCC3=O)Nc3ccc4ncccc4c32)ccc1O` (configuration not stated) the Potency was inconclusive: 16.9 µM [inhibitor, partial curve].
For `O=C(CN1CCOCC1)Nc1nc2ccc(Br)cc2s1`, the Potency was inconclusive: 37.9 µM [inhibitor, single point].
`COc1ccc(NC(=O)C2CCCN(C(=O)Nc3ccc(F)cc3)C2)cc1` (configuration not stated) was tested, and the “activity change, negative = inhibition” value was inactive: -0.34%.
For `Cn1c(-n2cccc2)c(-c2c(-c3ccc(F)cc3)[nH]c3c2c(=O)n(C)c(=O)n3C)c(=O)n(C)c1=O`, the “activity change, negative = inhibition” value was inactive: 1.07%.
In the case of `Cc1cc(C(=O)OC(C)C(=O)N2CCc3ccccc32)ccc1[N+](=O)[O-]` (configuration not stated), the “activity change, negative = inhibition” value is reported as inactive: 3.13%.
For `O=C(Cc1c(F)cccc1Cl)Nc1cc(S(=O)(=O)N2CCCCC2)ccc1N1CCOCC1`, the “activity change, negative = inhibition” value was inactive: -11.6%.
`CO[C@H]1C=CO[C@@]2(C)Oc3c(C)c(O)c4c(O)c(c5c(c4c3C2=O)NC2(CCN(CC(C)C)CC2)N=5)=NC(=O)C(C)=CC=C[C@H](C)[C@H](O)[C@@H](C)[C@@H](O)[C@@H](C)[C@H](OC(C)=O)[C@@H]1C` was tested, and the Potency was inconclusive: 21.3 µM [inhibitor, partial curve, poor fit].
With `Cc1ccc(S(=O)(=O)n2nc(-c3ccc(Cl)cc3)nc2NCc2ccccc2)cc1` the “activity change, negative = inhibition” value was inactive: -1.94%.
For `O=C(Nc1cccc(-c2nc3ccccc3[nH]2)c1)c1ccccn1`, the Potency was active: 13.5 µM.
For `Cc1ccc(-n2c(=O)[nH]cc(C(=O)Nc3ccc4c(c3)OCCO4)c2=O)cc1C`, the Potency was inconclusive: 30.1 µM [inhibitor, partial curve, poor fit].
`COc1c(F)c(F)c(C(=O)O)c(Nc2cc(C)cc(C)c2)c1F` was tested, and the Potency was inconclusive: 10.7 µM [inhibitor, partial curve].
For `Cc1ccccc1NC(=O)c1nnn(-c2ccc3c(c2)OCCO3)c1N`, the Potency was active: 6.01 µM.
With `COc1ccc(NC(=O)CCC(=O)c2cccs2)c(OC)c1` the Potency was inconclusive: 37.9 µM [inhibitor, partial curve, poor fit].
In the case of `Cc1noc(C)c1COC(=O)c1cccc(N(C)C)c1`, the “activity change, negative = inhibition” value is reported as inactive: -8.91%.
With `CCOC(=O)/C(C#N)=C\c1ccc(N2CCN(C)CC2)cc1` the Potency was active: 12 µM.
In the case of `O=C(O)Cn1c(-c2cccs2)cc2cc(Cl)ccc21`, the Potency is reported as inconclusive: 12 µM [inhibitor, partial curve].
For `O=C(Nc1nnc(SCc2ccc(F)cc2)s1)c1cnccn1`, the “activity change, negative = inhibition” value was inactive: -15.4%.
`O=C(Nc1cccs1)Nc1ccc(F)cc1F` was tested, and the Potency was inconclusive: 23.9 µM [inhibitor, single point].
In the case of `COc1cccc2sc(NC(=O)CS(=O)(=O)c3ccc(C)cc3)nc12`, the Potency is reported as inconclusive: 21.3 µM [inhibitor, partial curve, poor fit].
In the case of `COc1ccc(/C=C2\NC(=O)C(C=NCc3ccccc3)=C2O)cc1`, the Potency is reported as inconclusive: 1.9 µM [inhibitor, partial curve].
In the case of `O=C(CN1C(=O)S/C(=C\c2cccs2)C1=O)Nc1ccc(O)c(C(=O)O)c1`, the Potency is reported as inconclusive: 26.9 µM [inhibitor, single point].
`O=C(Nc1nccs1)c1ccc(Br)s1` was tested, and the Potency was active: 15.1 µM.
For `O=c1cc(CN2CCN(S(=O)(=O)c3ccc4ccccc4c3)CC2)nc2sccn12`, the “activity change, negative = inhibition” value was inactive: -0.416%.
For `CNC(=S)N/N=C/c1ccc(N(C)C)cc1`, the Potency was inconclusive: 21.3 µM [inhibitor, single point].
In the case of `Cc1ccc2nc(CCCc3nc4ccc(C)cc4[nH]3)[nH]c2c1`, the Potency is reported as inconclusive: 19 µM [inhibitor, partial curve, poor fit].
With `O=C(COc1cccc(NC(=O)c2ccccc2)c1)c1ccc(F)cc1` the Potency was active: 15.1 µM.
